# The whole screen tested about 52,000 compounds, of which about 4,300 (8.3%) were called active. Cut-off read from the data, not from the text of the source: active = survival mostly below about 52% (no sharp cut-off); inactive = mostly above about 56%. The list shows a part of the results.
# Tested on: DeltatarO mutant
# Test: S. aureus survival, RN4220 and DeltatarO strains – OD600, teichoic acid synthesis inhibitors, primary screen (AID 463173)
# Details: S. aureus RN4220 wild type/DeltatarO growth, OD600, 18 h, active compounds read low, screened at 18.75 µg/mL (by protocol)
row,Structure (SMILES),survival
1,CCC(C(=O)NCCc1ccc(OC)c(OC)c1)n1nc(C)c2sc3ccccc3c2c1=O (stereo not given),inactive: 70%
2,Cc1cc(C)cc(-n2ccn3cnnc3c2=O)c1,inactive: 87%
3,Cc1ccc(OCC(=O)OCc2cc(=O)n3nc(C4CC4)sc3n2)cc1C,inactive: 71%
4,CCCN(c1ccccc1F)S(=O)(=O)c1cc(-c2cc(C)no2)ccc1C,inactive: 94%
5,CCOCCCNC(=O)Cn1ncc2c([nH]c3ccc(C)cc32)c1=O,inactive: 83%
6,COCCN(Cc1ccc(C)c(Br)c1)S(=O)(=O)c1ccc2[nH]c(=O)ccc2c1,active: 20%
7,CCC(C)(C)NC(=O)Cn1c(-c2ccc(C)cc2)noc1=O,inactive: 86%
8,CC1CCCCC1NC(=O)Cn1nnc(-c2ccc(N(C)C)cc2)n1 (stereo not given),inactive: 106%
9,CCOC(=O)c1ccc(NC(=O)c2cc(=O)c3ccc(C)c(C)c3o2)cc1,active: 45%
10,CC(=O)N1CCc2cc(Br)cc(S(=O)(=O)CCC(=O)N3CCN(c4cccc(C)c4C)CC3)c21,active: 45%
11,Cn1nc(-c2ccccc2)c(-c2ccccc2)c(C(=O)Nc2ccccc2C(N)=O)c1=O,inactive: 107%
12,CCCN(CCC)c1cc(C)nc2nc(-c3ccc(C(C)(C)C)cc3)nn12,inactive: 103%
13,Cc1cc(C)cc(N2C(=O)CSC23C(=O)N(CC(N)=O)c2ccccc23)c1 (stereo not given),inactive: 98%
14,CCOCCCNC(=O)Cn1ncc2c([nH]c3ccccc32)c1=O,inactive: 95%
15,Clc1ccccc1CNCCCSc1nnnn1-c1ccccc1,inactive: 57%
16,O=C1CC2(Oc3ccccc3O2)C(=O)NN1,inactive: 101%
17,Cc1noc(C)c1S(=O)(=O)N(CC(=O)Nc1ccc(C(F)(F)F)cc1)c1ccc(C(C)C)cc1,inactive: 55%
18,CCc1ccccc1NC(=O)N1CCN(Cc2nc3ccc(C)cc3o2)CC1,inactive: 84%
19,Cn1c(SCC(=O)N2CCCc3ccccc32)nnc1-c1ccccc1N,inactive: 92%
20,Cc1ccc(-n2ncc3c(Nc4ccc(Oc5ccccc5)cc4)ncnc32)cc1,inactive: 68%
21,CC(C)Cc1nn2c(=O)cc(COC(=O)c3cccc(NC(=O)c4ccccc4)c3)nc2s1,inactive: 75%
22,COc1ccc(NC(=O)c2cc(C3CC3)nc3c2c(C)nn3-c2ccccc2)c(OC)c1,active: 37%
23,CCCN(CCC)CCNC(=O)c1cc2c(=O)oc3ccc(C)cc3c2s1,inactive: 116%

row,Structure (SMILES),survival
1,Cc1c(C(=O)Nc2cccc(C(F)(F)F)c2)sc2nc3n(c(=O)c12)CCC3,inactive: 65%
2,Cc1cccc(Cn2cc3c(=O)n(CC(=O)Nc4cccc(C)c4C)nc-3c3cc(F)ccc32)c1,inactive: 80%
3,Cc1cccc(N2CCN(C(=O)c3cc4ccc5cccnc5c4[nH]3)CC2)c1C,inactive: 78%
4,CCSc1nnc(COc2ccccc2)n1CC,inactive: 70%
5,CCOc1ccccc1NC(=O)CSc1cn(CC(=O)N2CCCCCC2)c2ccccc12,inactive: 92%
6,COc1cc(OC)c(NC(=O)C(CC(C)C)N2Cc3ccccc3C2=O)cc1Cl (stereo not given),inactive: 122%
7,Cc1ccc(NC(=O)CCN2C(=O)c3ccccc3Sc3ncccc32)cc1,inactive: 66%
8,CCOC(=O)Cn1nnnc1C(CC)N(Cc1cccnc1)Cc1cc2cc(C)ccc2[nH]c1=O (stereo not given),inactive: 78%
9,CC1=C(C(=O)Nc2ccccc2)C(c2ccc(F)cc2)n2nc(SCc3cc(C)ccc3C)nc2N1 (stereo not given),inactive: 97%
10,NC(=O)C1CCN(C(c2ccccc2)c2nnnn2Cc2ccccc2)CC1 (stereo not given),inactive: 95%
11,CCN(CC)S(=O)(=O)c1ccc2c(c1)N(CC(=O)Nc1cccc(C)c1C)C(=O)C1CCCN21 (stereo not given),active: -2%
12,O=C1C2C3C=CC(C3)C2C(=O)N1CCN1CCN(S(=O)(=O)c2ccc(Br)cc2)CC1 (stereo not given),inactive: 60%
13,CCOC(=O)N1CCN(Cc2nc3cc(NC(=O)CC(C)C)ccc3n2C(C)C)CC1,inactive: 71%
14,O=C(NCc1ccc2c(c1)CCN2C(=O)c1ccc(F)cc1)c1c(F)cccc1F,inactive: 85%
15,COc1cccc(-c2noc(-c3cc4ccccc4oc3=O)n2)c1OC,inactive: 102%
16,Cc1ccc(NC(=O)C2CCN(C(=O)c3sc4nc[nH]c(=O)c4c3C)CC2)cc1F,inactive: 89%
17,Cc1ccc(-c2nn(CCC(=O)Nc3ccc(OC(F)(F)F)cc3)c(=O)c3ccccc23)cc1,inactive: 82%
18,CCOc1cccc(C(=O)N(Cc2ccc(C(C)C)cc2)C2CCS(=O)(=O)C2)c1 (stereo not given),active: 40%
19,COc1ccccc1C(=O)Nc1ccccc1OCc1cc(=O)n2cc(C)sc2n1,inactive: 85%
20,Cc1ccc(/C=C(\C#N)C(=O)NC2CCCCCC2)o1,inactive: 92%
21,CCCSc1nnc(NC(=O)c2cc(=O)c3ccccc3o2)s1,active: 38%
22,COCCNC(=O)Cn1cc(/C=C2\C(=O)NC(=O)N(C3CCCCC3)C2=O)c2ccccc21,inactive: 88%

# From PubChem BioAssay AID463173 (ICCB-Longwood Screening Facility, Harvard Medical School, 2010)
